Laboratory results from a collection of fitness landscapes (doi:10.1126/science.1257360).
The list shows a part of the results.

B1: PhoQ; a variant is named by its letters at X, in order, P23837 (parent)
chain: MKKLLRLFFPLSLRVRFLLATAAVVLVLSLAYGMVALIGYSVSFDKTTFRLLRGESNLFYTLAKWENNKLHVELPENIDKQSPTMTLIYDENGQLLWAQRDVPWLMKMIQPDWLKSNGFHEIEADVNDTSLLLSGDHSIQQQLQEVREDDDDAEMTHSVAVNVYPATSRMPKLTIVVVDTIPVELKSSYMVWSWFIYVLSANLLLVIPLLWVAAWWSLRPIEALAKEVRELEEHNRELLNPATTRELTSLVRNLNRLLKSERERYDKYRTTLTDLTHSLKTPLXXLQXXLRSLRSEKMSVSDAEPVMLEQISRISQQIGYYLHRASMRGGTLLSRELHPVAPLLDNLTSALNKVYQRKGVNISLDISPEISFVGEQNDFVEVMGNVLDNACKYCLEFVEISARQTDEHLYIVVEDDGPGIPLSKREVIFDRGQRVDTLRPGQGVGLAVAREITEQYEGKIVAGESMLGGARMEVIFGRQHSAPKDE

Variants of: B1
Assay: enrichment ratio after two sorts for PhoP signalling (ratio (wild type AVST 3.29)); higher = more functional
Conditions: with PhoP (E. coli)

Row | Variant | enrichment ratio
1 | MYYE | ≤ 0.25
2 | GTPP | ≤ 0.25
3 | FCCR | ≤ 0.25
4 | VHHW | ≤ 0.25
5 | GMYF | ≤ 0.25
6 | RNYY | ≤ 0.25
7 | ISMW | ≤ 0.25
8 | KMAR | ≤ 0.25
9 | SQWI | ≤ 0.25
10 | QCYA | ≤ 0.25
11 | HNNR | ≤ 0.25
12 | PGKI | ≤ 0.25
13 | PYEI | ≤ 0.25
14 | TIMG | 3.15
15 | FAIC | ≤ 0.25
16 | ENPM | ≤ 0.25
17 | KSRW | ≤ 0.25
18 | HVTP | ≤ 0.25
19 | FNTR | ≤ 0.25
20 | DRQM | ≤ 0.25
21 | YPRH | ≤ 0.25
22 | GHER | ≤ 0.25
23 | TTYI | 6.16
24 | NQGT | ≤ 0.25

Row | Variant | enrichment ratio
25 | ADYL | ≤ 0.25
26 | MAWG | ≤ 0.25
27 | KELM | ≤ 0.25
28 | QCTT | ≤ 0.25
29 | SSNY | 7.35
30 | LRYD | ≤ 0.25
31 | TWFS | ≤ 0.25
32 | FVDS | ≤ 0.25
33 | RDNS | ≤ 0.25
34 | DQLQ | ≤ 0.25
35 | DSDS | ≤ 0.25
36 | NTSS | ≤ 0.25
37 | ARPY | ≤ 0.25
38 | TRRD | ≤ 0.25
39 | LASG | 0.329
40 | QGIN | ≤ 0.25
41 | IDVF | ≤ 0.25
42 | TIHL | 4.04
43 | SIQF | 11.1
44 | WCMW | ≤ 0.25
45 | DFFL | ≤ 0.25
46 | NAEL | ≤ 0.25
47 | KSNS | ≤ 0.25
48 | YKYN | ≤ 0.25

Row | Variant | enrichment ratio
49 | YKNI | ≤ 0.25
50 | QAKF | ≤ 0.25
51 | KNSV | ≤ 0.25
52 | PAMS | ≤ 0.25
53 | GSME | ≤ 0.25
54 | LITC | ≤ 0.25
55 | NVCY | ≤ 0.25
56 | MHYT | ≤ 0.25
57 | AINN | ≤ 0.25
58 | SQKA | ≤ 0.25
59 | DRHD | ≤ 0.25
60 | RYKY | ≤ 0.25
61 | RPEP | ≤ 0.25
62 | KTIT | ≤ 0.25
63 | QHEL | ≤ 0.25
64 | YKST | 0.557
65 | HSNT | ≤ 0.25
66 | YMRI | ≤ 0.25
67 | EKMW | ≤ 0.25
68 | ATYM | ≤ 0.25
69 | ERCS | ≤ 0.25
70 | ECAY | ≤ 0.25
71 | TSKH | ≤ 0.25
72 | NHAV | ≤ 0.25

Row | Variant | enrichment ratio
73 | VCCC | ≤ 0.25
74 | KCHS | ≤ 0.25
75 | GIRF | ≤ 0.25
76 | QRQH | ≤ 0.25
77 | KFDI | ≤ 0.25
78 | AKCL | 3.3
79 | IGRV | ≤ 0.25
80 | IPSK | ≤ 0.25
81 | PNLA | ≤ 0.25
82 | WFGE | ≤ 0.25
83 | MDCT | ≤ 0.25
84 | SDYQ | ≤ 0.25
85 | GFDI | ≤ 0.25
86 | ADIK | ≤ 0.25
87 | NIYP | ≤ 0.25
88 | YMFS | ≤ 0.25
89 | LNDK | ≤ 0.25
90 | TQLM | 22.7
91 | FGLL | 12.6
92 | IKGM | ≤ 0.25
93 | HVKL | ≤ 0.25
94 | WVKS | ≤ 0.25
95 | GAQN | ≤ 0.25
96 | YLMV | ≤ 0.25

Row | Variant | enrichment ratio
97 | FLEA | ≤ 0.25
98 | SPGK | ≤ 0.25
99 | THTQ | 1.45
100 | ADKC | ≤ 0.25
101 | MQGT | ≤ 0.25
102 | WTRA | ≤ 0.25
103 | KEAY | ≤ 0.25
104 | QLPF | ≤ 0.25
105 | LDCL | ≤ 0.25
106 | PMFY | ≤ 0.25
107 | HPCF | ≤ 0.25
108 | RECA | ≤ 0.25
109 | QAVR | ≤ 0.25
110 | MIFS | ≤ 0.25
111 | LNFW | ≤ 0.25
112 | ISNF | ≤ 0.25
113 | QQPQ | ≤ 0.25
114 | YVMM | ≤ 0.25
115 | GTGV | ≤ 0.25
116 | MCAS | 14
117 | WYTC | ≤ 0.25
118 | KPQM | ≤ 0.25
119 | VKMV | ≤ 0.25
120 | KEGQ | ≤ 0.25

Row | Variant | enrichment ratio
121 | YLQW | ≤ 0.25
122 | NTVP | ≤ 0.25
123 | QVWT | ≤ 0.25
124 | THDW | ≤ 0.25
125 | QGFM | 5.14
126 | NKVP | ≤ 0.25
127 | APDP | ≤ 0.25
128 | HLQM | ≤ 0.25
129 | WDSD | ≤ 0.25
130 | AMTS | 13.9
131 | LNCF | ≤ 0.25
132 | YEQD | ≤ 0.25
133 | DFEV | ≤ 0.25
134 | VNRM | ≤ 0.25
135 | TTTN | 4.77
136 | RDAI | ≤ 0.25
137 | SAQL | 9.87
138 | LLIW | ≤ 0.25
139 | WFKF | ≤ 0.25
140 | ADMH | ≤ 0.25
141 | EEVD | ≤ 0.25
142 | TASL | 15.1
143 | AQNR | ≤ 0.25
144 | FRWT | ≤ 0.25

Row | Variant | enrichment ratio
145 | STDT | ≤ 0.25
146 | WPTN | ≤ 0.25
147 | TRSG | ≤ 0.25
148 | WCRV | ≤ 0.25
149 | MFDP | ≤ 0.25
150 | CLHI | ≤ 0.25
151 | QYFQ | ≤ 0.25
152 | WGYY | ≤ 0.25
153 | MMFL | ≤ 0.25
154 | KIAW | ≤ 0.25
155 | FCEF | ≤ 0.25
156 | HEQI | ≤ 0.25
157 | IDMP | ≤ 0.25
158 | VTLY | ≤ 0.25
159 | FNTV | ≤ 0.25
160 | TKIM | 15.1
161 | WGMM | ≤ 0.25
162 | MTVW | ≤ 0.25
163 | MLYH | ≤ 0.25
164 | SMVN | 6.56
165 | VPHC | ≤ 0.25
166 | IGFH | ≤ 0.25
167 | AQIE | 5.02
168 | LQAQ | ≤ 0.25

Row | Variant | enrichment ratio
169 | KCYC | ≤ 0.25
170 | SARV | ≤ 0.25
171 | MVYP | ≤ 0.25
172 | NVVA | ≤ 0.25
173 | YQDF | ≤ 0.25
174 | FNQV | ≤ 0.25
175 | DDMW | ≤ 0.25
176 | PGEN | ≤ 0.25
177 | WHND | ≤ 0.25
178 | PSYH | ≤ 0.25
179 | DSRC | ≤ 0.25
180 | PNYN | ≤ 0.25
181 | TCCS | 8.68
182 | VPWR | ≤ 0.25
183 | KGCT | ≤ 0.25
184 | MLML | 1.11
185 | NCTI | ≤ 0.25
186 | SFRV | ≤ 0.25
187 | YAKF | ≤ 0.25
188 | LYIL | ≤ 0.25
189 | KFQA | ≤ 0.25
190 | FRIK | ≤ 0.25
191 | KPCR | ≤ 0.25
192 | WEPF | ≤ 0.25

Row | Variant | enrichment ratio
193 | PKGN | ≤ 0.25
194 | FMIC | ≤ 0.25
195 | ELYA | ≤ 0.25
196 | TEQI | 15
197 | LIYS | ≤ 0.25
198 | FQHA | ≤ 0.25
199 | ACMQ | 31.7
200 | KGPA | ≤ 0.25
201 | YTLL | 9.09
202 | EQHN | ≤ 0.25
203 | KING | ≤ 0.25
204 | IEVC | ≤ 0.25
205 | KVTD | ≤ 0.25
206 | SWMP | ≤ 0.25
207 | FTWN | ≤ 0.25
208 | DYPY | ≤ 0.25
209 | FGPM | ≤ 0.25
210 | EKVH | ≤ 0.25
211 | QNKM | ≤ 0.25
212 | VVWA | ≤ 0.25
213 | YSAA | ≤ 0.25
214 | TYAW | ≤ 0.25
215 | DGTF | ≤ 0.25
216 | ENLF | ≤ 0.25

Row | Variant | enrichment ratio
217 | VFQY | ≤ 0.25
218 | FAYI | ≤ 0.25
219 | GNSC | 12.1
220 | MYFF | ≤ 0.25
221 | VGNN | ≤ 0.25
222 | MICD | ≤ 0.25
223 | ADSW | ≤ 0.25
224 | MHDM | ≤ 0.25
225 | WQVP | 0.306
226 | NRYF | ≤ 0.25
227 | KEVQ | ≤ 0.25
228 | ILFC | ≤ 0.25
229 | YGMQ | ≤ 0.25
230 | WEEC | ≤ 0.25
231 | NQCR | ≤ 0.25
232 | AHKE | ≤ 0.25
233 | SAHG | ≤ 0.25
234 | LTQP | ≤ 0.25
235 | MWAS | ≤ 0.25
236 | KNHI | ≤ 0.25
237 | FSLV | 8.86
238 | RIMR | ≤ 0.25
239 | LHLM | ≤ 0.25
240 | TAPF | ≤ 0.25

Row | Variant | enrichment ratio
241 | SPHN | ≤ 0.25
242 | MAQH | ≤ 0.25
243 | GSYV | ≤ 0.25
244 | KFYH | ≤ 0.25
245 | SVAI | 10.3
246 | WPRF | ≤ 0.25
247 | LYWE | ≤ 0.25
248 | TWIA | ≤ 0.25
249 | FRPA | ≤ 0.25
250 | YENI | ≤ 0.25
251 | MCSM | 6.97
252 | PYVF | ≤ 0.25
253 | ICYP | ≤ 0.25
254 | WQTV | ≤ 0.25
255 | RMSQ | ≤ 0.25
256 | MFNY | ≤ 0.25
257 | RWIF | ≤ 0.25
258 | GEGG | ≤ 0.25
259 | PGAT | ≤ 0.25
260 | WPIS | ≤ 0.25
261 | EKAT | ≤ 0.25
262 | VVVH | ≤ 0.25
263 | KPKV | ≤ 0.25
264 | FQRV | ≤ 0.25

Row | Variant | enrichment ratio
265 | FTNY | ≤ 0.25
266 | HYCD | ≤ 0.25
267 | YHMT | ≤ 0.25
268 | MCQQ | ≤ 0.25
269 | GIVG | 10.4
270 | ARVI | 1.58
271 | IWMR | ≤ 0.25
272 | RRAP | ≤ 0.25
273 | IKLS | ≤ 0.25
274 | VVMS | ≤ 0.25
275 | FNDC | ≤ 0.25
276 | DRNQ | ≤ 0.25
277 | YEGP | ≤ 0.25
278 | DRSC | 0.882
279 | GIGD | ≤ 0.25
280 | NQGH | ≤ 0.25
281 | WEMV | ≤ 0.25
282 | FPVT | 0.751
283 | HDQG | ≤ 0.25
284 | VPKD | ≤ 0.25
285 | WFYY | ≤ 0.25
286 | RFSN | 0.949
287 | NIVL | ≤ 0.25
288 | EMRL | ≤ 0.25

Row | Variant | enrichment ratio
289 | QAVG | ≤ 0.25
290 | SWAP | ≤ 0.25
291 | WWPR | ≤ 0.25
292 | VYYA | ≤ 0.25
293 | VKNK | ≤ 0.25
294 | GFWL | ≤ 0.25
295 | WDMG | ≤ 0.25
296 | LVPR | ≤ 0.25
297 | LMYA | ≤ 0.25
298 | RMPR | ≤ 0.25
299 | IHNT | ≤ 0.25
300 | MRNW | ≤ 0.25
301 | DGPA | ≤ 0.25
302 | SGQE | ≤ 0.25
303 | EPIN | ≤ 0.25
304 | HNNG | ≤ 0.25
305 | NPYT | ≤ 0.25
306 | GGFH | ≤ 0.25
